Data taken from article PMC5566547, “Nei-like 1 (NEIL1) excises 5-carboxylcytosine directly and stimulates TDG-mediated 5-formyl and 5-carboxylcytosine excision” (Scientific Reports, 2017).

Target: T1, Thymine DNA glycosylase (TDG), full-length wild-type human, N-terminal hexahistidine tag (human, UniProt Q13569)
T1 construct: Thymine DNA glycosylase (TDG), human, full-length wild type, from pET28c(+) plasmid (gift of Primo Schär); The purification describes no tag cleavage step; also called TDG wt; full length TDG; source: E. coli BL21-RIL (DE3), purified (HisTrap, HiTrap Heparin)
Assay: SEC; Superdex 200 10/300 GL; co-injection of NEIL1 E3Q and TDG (5nmoles of both in 0.5 ml), incubated 30 min on ice; SEC buffer 70 mM MOPS pH7.5, 5% glycerol, 1 mM EDTA, 1 mM DTT, 100 mM KCl; profile compared with the sum of separate injections
Details: both partners purified

T1 sequence (Q13569 whole entry): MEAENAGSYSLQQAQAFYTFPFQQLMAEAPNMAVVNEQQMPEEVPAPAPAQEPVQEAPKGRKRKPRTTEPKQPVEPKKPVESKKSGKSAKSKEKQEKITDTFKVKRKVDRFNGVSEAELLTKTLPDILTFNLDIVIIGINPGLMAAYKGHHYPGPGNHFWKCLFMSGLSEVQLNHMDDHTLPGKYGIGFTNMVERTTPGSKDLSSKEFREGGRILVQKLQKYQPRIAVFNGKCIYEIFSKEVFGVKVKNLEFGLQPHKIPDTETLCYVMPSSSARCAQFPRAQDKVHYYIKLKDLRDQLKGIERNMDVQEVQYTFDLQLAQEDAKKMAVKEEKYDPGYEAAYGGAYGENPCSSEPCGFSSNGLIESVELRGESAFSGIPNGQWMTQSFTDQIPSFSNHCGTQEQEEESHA

binding result: binds
B1: NEIL1 E3Q (human Nei-like 1, E3Q variant, C-terminal hexahistidine tag) (enzyme)
chain: not shown
notes: The purification describes no tag cleavage step. pET28 plasmid obtained from Prof Barbara Tudek and Prof Bertrand Castaing; source: E. coli BL21-RIL (DE3), purified (Ni-NTA, HiTrap Heparin)
